Lines with a small IC50 respond at low doses; a limit (>, <) means that the fit lies beyond the doses tested. The AUC spans the tested range (256-fold, ending at the top dose) of the same fit; it is 1 without any effect and falls as sensitivity rises. For some of these results: The top dose, if marked as inferred, comes from the curve model; the source does not state it. For some of these results: An entry number marks a drug with two screens in the source, which often give different values.
How the values were obtained:
Assay in all cases: Viability of human cancer cell lines after 72 h of drug (GDSC screen)
Docetaxel = compound: CC(=O)O[C@@]12CO[C@@H]1C[C@H](O)[C@@]1(C)C(=O)[C@H](O)C3=C(C)[C@@H](OC(=O)[C@H](O)[C@@H](NC(=O)OC(C)(C)C)c4ccccc4)C[C@@](O)([C@@H](OC(=O)c4ccccc4)[C@H]21)C3(C)C [Docetaxel]; conditions: top dose 0.0125 µM
Method: (§1)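 Human cancer cell lines in 384-well plates, medium with 10% serum, drug for 72 h over a 256-fold dose range (nine 2-fold or five 4-fold steps up to the top dose). Adherent lines were fixed and stained with the nucleic acid dye Syto60, suspension lines read with resazurin; signal relative to control wells, capped at 0 and 100%. One two-parameter sigmoid per drug and line, fitted in a mixed model over all curves with the slope shared within a line.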

AMG-706 = compound: CC1(C)CNc2cc(NC(=O)c3cccnc3NCc3ccncc3)ccc21 [AMG-706]; conditions: top dose 2 µM; top dose inferred
Method: as §1

JNK Inhibitor VIII = compound: CCOc1nc(NC(=O)Cc2cc(OC)ccc2OC)cc(N)c1C#N [JNK Inhibitor VIII]; conditions: top dose 10 µM; top dose inferred
Method: as §1

JQ1 = compound: Cc1sc2c(c1C)C(c1ccc(Cl)cc1)=N[C@@H](CC(=O)OC(C)(C)C)c1nnc(C)n1-2 [JQ1]
Method: as §1

JNJ-26854165 = compound: c1ccc2c(CCNc3ccc(Nc4ccncc4)cc3)c[nH]c2c1 [JNJ-26854165]; conditions: top dose 10 µM
Method: as §1

NSC-207895 = compound: CN1CCN(c2ccc([N+](=O)[O-])c3no[n+]([O-])c23)CC1 [NSC-207895]; conditions: top dose 20 µM; top dose inferred
Method: as §1

YM155 = compound: COCC[n+]1c2c(n(Cc3cnccn3)c1C)C(=O)c1ccccc1C2=O [YM155]; conditions: top dose 5.12 µM
Method: as §1

SB-715992 = compound: Cc1ccc(C(=O)N(CCCN)[C@@H](c2nc3cc(Cl)ccc3c(=O)n2Cc2ccccc2)C(C)C)cc1 [SB-715992]; conditions: top dose 0.128 µM; top dose inferred
Method: as §1

Belinostat = compound: O=C(/C=C/c1cccc(S(=O)(=O)Nc2ccccc2)c1)NO [Belinostat]; conditions: top dose 20 µM; top dose inferred
Method: as §1

FTI-277 = compound: COC(=O)[C@H](CCSC)NC(=O)c1ccc(NC[C@@H](N)CS)cc1-c1ccccc1 [FTI-277]; conditions: top dose 1.024 µM; top dose inferred
Method: as §1

OSI-906 = compound: C[C@]1(O)C[C@@H](c2nc(-c3ccc4ccc(-c5ccccc5)nc4c3)c3c(N)nccn32)C1 [OSI-906]; conditions: top dose 2.56 µM; top dose inferred
Method: as §1

[1] = top dose 1 µM, screen: GDSC drug entry 1218, top dose inferred
[2] = top dose 2.56 µM, screen: GDSC drug entry 163

Cell Line	AUC (Docetaxel)	IC50 (Docetaxel) [nM]	AUC (AMG-706)	IC50 (AMG-706) [nM]	AUC (JNK Inhibitor VIII)	IC50 (JNK Inhibitor VIII) [nM]	AUC (JQ1; [1])	IC50 (JQ1; [1]) [nM]	AUC (JNJ-26854165)	IC50 (JNJ-26854165) [nM]	AUC (NSC-207895)	IC50 (NSC-207895) [nM]	AUC (YM155)	IC50 (YM155) [nM]	AUC (SB-715992)	IC50 (SB-715992) [nM]	AUC (Belinostat)	IC50 (Belinostat) [nM]	AUC (FTI-277)	IC50 (FTI-277) [nM]	AUC (OSI-906)	IC50 (OSI-906) [nM]	AUC (JQ1; [2])	IC50 (JQ1; [2]) [nM]
BALL-1 (B-cell leukaemia, suspension)	0.967	> 12.5	0.997	> 2000	0.995	> 10000	0.996	> 1000	0.9	6570														
BT-549 (breast, adherent)	0.674	2.91	0.975	> 2000	0.971	> 10000			0.758															
CADO-ES1 (Ewing sarcoma, suspension)	0.987	> 12.5	0.987	> 2000	0.98	> 10000	0.966	> 1000	0.944	> 10000	0.81	10700	0.894	> 5120	0.829	81.8	0.216	181						
CL-34 (large intestine, adherent)	0.947	> 12.5	0.982	> 2000	0.987	> 10000	0.985	> 1000	0.964	> 10000														
CL-40 (large intestine, adherent)	0.87	> 12.5	0.976	> 2000	0.976	> 10000	0.966	> 1000	0.936	> 10000														
CML-T1 (chronic myeloid leukaemia, suspension)	0.877	8.94	0.992	> 2000	0.992	> 10000	0.941	> 1000	0.853	5810														
COR-L321 (lung, suspension)	0.964	> 12.5	0.986	> 2000	0.989	> 10000	0.986	> 1000	0.94	> 10000	0.61	2500	0.027	< 20	0.676	24.7	0.152	106						
ESO51 (oesophagus, semi-adherent)	0.81	10.2	0.941	> 2000	0.958	> 10000	0.971	> 1000			0.925	> 20000	0.255	46.3	0.879	> 128	0.439	798						
EW-22 (Ewing sarcoma, adherent)	0.86	9.81	0.964	> 2000	0.983	> 10000	0.985	> 1000	0.816	5250														
IGR-37 (melanoma, adherent)	0.604	1.46			0.974	> 10000	0.988	> 1000	0.929	> 10000	0.801	8770	0.287	85.2	0.939	> 128			0.989	> 1020	0.916	> 2560	0.746	750
IGROV-1 (ovary, adherent)	0.763	6.71	0.975	> 2000	0.976	> 10000	0.973	> 1000	0.791	7120														
JEKO-1 (B-cell lymphoma, suspension)	0.824	7.03	0.987	> 2000	0.987	> 10000	0.603	118	0.918	> 10000														
JHOS-4 (ovary, adherent)	0.789	8.42	0.931	> 2000	0.957	> 10000			0.92	> 10000														
KARPAS-1106P (B-cell lymphoma, suspension)	0.879	9.07	0.993	> 2000	0.993	> 10000	0.793	370	0.858	6010														
KU-19-19 (bladder, adherent)	0.904	> 12.5			0.974	> 10000	0.986	> 1000	0.548	844	0.987	> 20000	0.156	27.8	0.986	> 128	0.441	864	0.984	> 1020	0.967	> 2560	0.933	> 2560
MHH-CALL-2 (B-cell leukaemia, suspension)	0.992	> 12.5	0.982	> 2000	0.991	> 10000	0.997	> 1000	0.984	> 10000														
MKN7 (stomach, adherent)	0.783	7.32	0.975	> 2000	0.974	> 10000	0.976	> 1000	0.883	> 10000														
MM1S (myeloma, suspension)	0.884	12.4	0.987	> 2000	0.987	> 10000			0.856	7420														
MOLM-16 (acute myeloid leukaemia, suspension)	0.817	5.91	0.985	> 2000	0.974	> 10000	0.977	> 1000	0.828	5170														

Cell Line	AUC (Docetaxel)	IC50 (Docetaxel) [nM]	AUC (AMG-706)	IC50 (AMG-706) [nM]	AUC (JNK Inhibitor VIII)	IC50 (JNK Inhibitor VIII) [nM]	AUC (JQ1; [1])	IC50 (JQ1; [1]) [nM]	AUC (JNJ-26854165)	IC50 (JNJ-26854165) [nM]	AUC (NSC-207895)	IC50 (NSC-207895) [nM]	AUC (YM155)	IC50 (YM155) [nM]	AUC (SB-715992)	IC50 (SB-715992) [nM]	AUC (Belinostat)	IC50 (Belinostat) [nM]	AUC (FTI-277)	IC50 (FTI-277) [nM]	AUC (OSI-906)	IC50 (OSI-906) [nM]	AUC (JQ1; [2])	IC50 (JQ1; [2]) [nM]
MOLT-16 (T-cell lymphoblastic leukaemia, suspension)	0.718	2.77	0.991	> 2000	0.98	> 10000	0.705	206	0.34	249														
NCC010 (kidney, adherent)	0.895	> 12.5	0.91	> 2000	0.934	> 10000	0.983	> 1000	0.856	8940														
NCI-H146 (small cell lung carcinoma, suspension)	0.99	> 12.5	0.994	> 2000	0.993	> 10000	0.994	> 1000	0.954	> 10000														
NCI-H508 (large intestine, semi-adherent)	0.897	> 12.5	0.976	> 2000	0.976	> 10000	0.946	> 1000	0.938	> 10000														
NCI-H835 (lung carcinoid, suspension)	0.98	> 12.5	0.98	> 2000	0.988	> 10000	0.928	> 1000	0.958	> 10000														
NCI-H929 (myeloma, suspension)	0.891	10.8	0.963	> 2000	0.973	> 10000	0.975	> 1000	0.949	> 10000														
NCI-H1105 (small cell lung carcinoma, suspension)	0.93	> 12.5	0.993	> 2000	0.993	> 10000	0.992	> 1000																
NCI-H1341 (small cell lung carcinoma, suspension)	0.922	> 12.5	0.991	> 2000	0.992	> 10000	0.919	> 1000	0.962	> 10000														
NCI-N87 (stomach, adherent)	0.823	12.2	0.959	> 2000	0.976	> 10000	0.976	> 1000	0.874	> 10000														
RCH-ACV (B-cell leukaemia, suspension)	0.892	10.2	0.992	> 2000	0.99	> 10000	0.584	101	0.894	8310														
RH-18 (rhabdomyosarcoma, adherent)	0.918	> 12.5	0.965	> 2000	0.963	> 10000	0.803	583	0.899	> 10000					0.985	> 128								
RT4 (bladder, adherent)	0.904	> 12.5	0.979	> 2000			0.985	> 1000	0.987	> 10000	0.857	17600	0.26	63.1	0.78	55.3	0.325	395	0.987	> 1020	0.987	> 2560	0.867	2530
SK-MEL-31 (melanoma, adherent)	0.843	> 12.5	0.944	> 2000	0.983	> 10000	0.934	> 1000	0.886	> 10000														
SUP-B8 (B-cell leukaemia, suspension)	0.865	10.8	0.986	> 2000	0.989	> 10000	0.982	> 1000	0.765	3640														
TC-YIK (cervix, suspension)	0.849	7.55	0.989	> 2000	0.988	> 10000	0.633	138	0.933	> 10000														
U-266 (myeloma, semi-adherent)	0.682	3.03	0.98	> 2000	0.98	> 10000																		
VMRC-LCD (lung adenocarcinoma, adherent)	0.727	3.02	0.993	> 2000	0.993	> 10000	0.992	> 1000	0.936	> 10000														
ZR-75-30 (breast, adherent)	0.861	> 12.5	0.949	> 2000	0.976	> 10000	0.981	> 1000	0.95	> 10000														
